Reference: the supplement of paper PMC3334620
Over roughly 33,000 sequences, “E-score (-0.5 to 0.5)” has its median near -0.054; the highest 2% begin near 0.35. Some of the results follow.

target: T1, Stb5 (UniProt P38699); test: PBM E-score (8-mer binding enrichment) (E-score (-0.5 to 0.5)); higher = stronger / more preferred TF binding; most listed sequences are background and not binding sites; settings: protein concentration: 200 nM; construct: GST-full length
T1 sequence: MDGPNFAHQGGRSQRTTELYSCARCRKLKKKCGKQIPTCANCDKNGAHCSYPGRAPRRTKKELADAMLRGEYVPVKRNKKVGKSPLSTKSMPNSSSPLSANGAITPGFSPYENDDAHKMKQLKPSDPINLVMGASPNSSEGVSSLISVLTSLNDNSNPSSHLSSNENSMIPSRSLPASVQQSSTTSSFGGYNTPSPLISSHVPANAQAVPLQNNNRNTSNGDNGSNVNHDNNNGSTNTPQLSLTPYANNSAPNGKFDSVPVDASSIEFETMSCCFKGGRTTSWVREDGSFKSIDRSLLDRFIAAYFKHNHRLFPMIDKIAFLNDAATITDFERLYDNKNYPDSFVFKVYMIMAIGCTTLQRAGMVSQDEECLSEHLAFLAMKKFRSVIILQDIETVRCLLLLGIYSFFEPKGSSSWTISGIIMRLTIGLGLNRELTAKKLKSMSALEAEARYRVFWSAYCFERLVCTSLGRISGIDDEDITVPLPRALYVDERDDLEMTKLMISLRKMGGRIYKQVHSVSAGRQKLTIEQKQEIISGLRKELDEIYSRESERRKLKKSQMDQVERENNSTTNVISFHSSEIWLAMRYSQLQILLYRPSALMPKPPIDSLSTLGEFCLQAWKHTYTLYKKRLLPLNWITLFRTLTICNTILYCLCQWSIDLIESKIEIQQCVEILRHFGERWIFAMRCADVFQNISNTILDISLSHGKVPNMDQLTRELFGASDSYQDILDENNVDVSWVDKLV
Summary of the method: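 Yeast transcription factors, full-length or as DNA-binding domains, were expressed with a GST tag using PURExpress in vitro transcription/translation. At about 100-200 nM they were applied to universal all-10-mer Agilent arrays, double-stranded by primer extension on fresh or once-stripped slides. Fluorescent anti-GST detected bound protein, and masliner normalised the scans. E-scores for ungapped eight-base words, pooled with reverse complements, came from the Universal PBM Analysis Suite.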

First: CCTGGCAG
Second: CCCTAACC
The “PBM E-score” value of the first is lower: -0.283 for the first, -0.0852 for the second.

Going from ACTGCAAA to TATGCTGA, the “PBM E-score” value rises from -0.271 to -0.0365.

Going from ATGAACCA to ATCAGCAT, the “PBM E-score” value rises from -0.252 to -0.0274.

Compared with AAAAGTTT, AAGTGGGC is lower in “PBM E-score” value: -0.05 for the first, -0.196 for the second.

Going from ACGAGGAG to CGACCTCA, the “PBM E-score” value rises from -0.41 to -0.119.

Compared with CCCTACGA, CATGTGTC is higher in “PBM E-score” value: -0.21 for the first, -0.152 for the second.

First: CCCAGAGA
Second: AATATACC
The “PBM E-score” value of the first is lower: -0.175 for the first, 0.147 for the second.

Compared with ACCATACC, GACAGTCC is higher in “PBM E-score” value: -0.0642 for the first, -0.0292 for the second.

Going from ACGACAAG to AAAGTGAC, the “PBM E-score” value falls from 0.0071 to -0.0657.

First: CCTAGTCA
Second: CTTCGAGA
The “PBM E-score” value of the first is lower: -0.28 for the first, -0.132 for the second.

Going from GTCAAAAA to GCTTGGCA, the “PBM E-score” value falls from -0.136 to -0.35.

Compared with TAAATATA, ACTGGCCT is lower in “PBM E-score” value: 0.0785 for the first, -0.108 for the second.

Going from CGCTGATA to ACGGCTGG, the “PBM E-score” value falls from 0.26 to -0.108.

First: CAGAGTAG
Second: ATGACATG
The “PBM E-score” value of the first is lower: -0.166 for the first, -0.135 for the second.

Going from AGGTACGG to ACAGGCGG, the “PBM E-score” value rises from 0.239 to 0.293.

Compared with CACTTGTA, ACTTTTCG is higher in “PBM E-score” value: -0.0461 for the first, -0.0161 for the second.

Going from TTAGAAAA to CTGAGCTA, the “PBM E-score” value falls from -0.0901 to -0.156.

First: TAACTGAA
Second: GCAGTGCA
The “PBM E-score” value of the first is lower: -0.244 for the first, -0.17 for the second.

Compared with ACCACGGA, CACACAAA is lower in “PBM E-score” value: 0.166 for the first, -0.288 for the second.

First: GTGCGCGA
Second: CAGTTCAC
The “PBM E-score” value of the first is higher: -0.00029 for the first, -0.188 for the second.

Going from AGAGGCAC to ATTAACAG, the “PBM E-score” value rises from -0.179 to -0.0815.

Going from ATATTGTG to GTCAGCTA, the “PBM E-score” value falls from -0.132 to -0.163.

Compared with GTATGGCA, ATGCCACG is higher in “PBM E-score” value: -0.207 for the first, -0.041 for the second.

Compared with CAGTATCA, GCTGGCTA is lower in “PBM E-score” value: -0.137 for the first, -0.324 for the second.

Going from ATATGTAG to AAAACACG, the “PBM E-score” value rises from -0.174 to -0.0278.

Compared with CCAGCGGG, ATGCAGAA is lower in “PBM E-score” value: 0.25 for the first, -0.237 for the second.

First: AGTTTTCC
Second: AGCTTAAC
The “PBM E-score” value of the first is higher: 0.11 for the first, -0.221 for the second.

Going from GCAGTAAA to CCTTCTAA, the “PBM E-score” value falls from 0.148 to -0.319.

Compared with ATATCATG, CGAATACA is lower in “PBM E-score” value: 0.0063 for the first, -0.0285 for the second.

First: ATTATTAC
Second: CATGAATG
The “PBM E-score” value of the first is higher: 0.228 for the first, -0.0209 for the second.

Going from CCTAGGGC to ATGTGCAG, the “PBM E-score” value falls from -0.145 to -0.222.

Compared with ACGGTAGT, AAGGTGTC is lower in “PBM E-score” value: 0.191 for the first, 0.081 for the second.

Going from GCCCACAC to AATAGGGG, the “PBM E-score” value rises from -0.0569 to -0.0342.

Going from CGCAGGAG to CTATGCTC, the “PBM E-score” value falls from -0.149 to -0.244.

Compared with AAACGCTG, ATTAGGGA is lower in “PBM E-score” value: -0.081 for the first, -0.108 for the second.

Going from CTTCCTTC to CATACTTC, the “PBM E-score” value rises from -0.195 to -0.0981.

Going from AGAAAGAT to GTAACCAC, the “PBM E-score” value rises from -0.187 to -0.133.

Going from TGCGGCAA to CGATGTGA, the “PBM E-score” value falls from 0.0503 to -0.0768.

Going from ATACCTGG to CAGTGAGA, the “PBM E-score” value falls from 0.0825 to -0.143.

Going from CGAAGACG to AACGTTGT, the “PBM E-score” value falls from 0.124 to -0.107.

Compared with TCCAAACA, GACAAGAC is higher in “PBM E-score” value: -0.225 for the first, -0.0885 for the second.

First: CGCTTTTC
Second: CTCTGGCA
The “PBM E-score” value of the first is higher: -0.00357 for the first, -0.222 for the second.

Compared with CTTTTACC, TAAGATAA is higher in “PBM E-score” value: -0.0389 for the first, -0.0372 for the second.

Compared with CTGTTGTC, TTCTTCAA is lower in “PBM E-score” value: 0.00312 for the first, -0.0893 for the second.

First: AATCAGCC
Second: AGGGTACA
The “PBM E-score” value of the first is higher: -0.0814 for the first, -0.18 for the second.

Compared with ACAGGGTC, ATCTTGAA is lower in “PBM E-score” value: -0.0853 for the first, -0.15 for the second.

Going from GTTTATGA to CGTCTTAA, the “PBM E-score” value falls from -0.0122 to -0.0278.

First: AGCAAAAT
Second: CGTGGGCC
The “PBM E-score” value of the first is lower: 0.00935 for the first, 0.0271 for the second.

Compared with CTGGACGA, CGGAACAA is higher in “PBM E-score” value: -0.0219 for the first, 0.235 for the second.

Compared with AAAACGGC, AGTCGGTC is higher in “PBM E-score” value: 0.21 for the first, 0.259 for the second.

First: AATGTTAC
Second: AGCTTCTC
The “PBM E-score” value of the first is higher: -0.0138 for the first, -0.249 for the second.

Going from GTCACGAA to CGGACAAA, the “PBM E-score” value rises from -0.132 to 0.348.

Going from CACATACC to GGTGGCGA, the “PBM E-score” value falls from 0.0991 to -0.0644.

Compared with GAACTTAC, GCCAACTA is lower in “PBM E-score” value: -0.142 for the first, -0.189 for the second.

First: ATTTAGTC
Second: CGAAAAGC
The “PBM E-score” value of the first is lower: -0.0872 for the first, -0.00632 for the second.

Compared with CCCGTGTC, CAGAGGAA is lower in “PBM E-score” value: 0.175 for the first, -0.174 for the second.

Going from TGTCGTAA to CCATTCGC, the “PBM E-score” value rises from -0.227 to -0.188.

Going from TCCAAGCA to CACGGTCG, the “PBM E-score” value rises from -0.0699 to 0.0812.

Compared with CTGTCTAA, TCTAGGCA is lower in “PBM E-score” value: -0.032 for the first, -0.0493 for the second.

Compared with GATTCCGC, CGGTACCG is higher in “PBM E-score” value: 0.154 for the first, 0.24 for the second.

Going from ATCGTAAC to ACGGTGGG, the “PBM E-score” value rises from 0.0562 to 0.126.

Compared with GGCTTTTA, CGCGAGGA is lower in “PBM E-score” value: 0.312 for the first, -0.124 for the second.

Going from AAATAAGC to ACTTGTAA, the “PBM E-score” value rises from -0.0955 to -0.0526.

Going from AATATGTC to GCTGGTCC, the “PBM E-score” value rises from -0.0217 to 0.0105.

Compared with CATCGATA, CGCCGACG is higher in “PBM E-score” value: 0.049 for the first, 0.395 for the second.

Compared with ACACCCCC, GGCGCCAC is higher in “PBM E-score” value: -0.0732 for the first, 0.164 for the second.

Compared with CAGCTTCC, GTGGGAAC is lower in “PBM E-score” value: -0.221 for the first, -0.241 for the second.

First: AAAGTAAG
Second: CATCGGGC
The “PBM E-score” value of the first is lower: -0.119 for the first, 0.214 for the second.

Compared with TGGATACA, GGCGGACC is higher in “PBM E-score” value: -0.256 for the first, 0.412 for the second.

Going from CCCGTTGA to GCCAGCAA, the “PBM E-score” value falls from 0.221 to -0.0363.

First: CTAAACAC
Second: ACGACTAA
The “PBM E-score” value of the first is higher: 0.0396 for the first, -0.134 for the second.

Going from CACCTCAG to CGTGAGGC, the “PBM E-score” value rises from -0.221 to -0.133.

Going from CAAGGCCA to AGGGATCG, the “PBM E-score” value rises from -0.186 to -0.0472.

First: CAGATTGC
Second: ACCGCCCT
The “PBM E-score” value of the first is lower: -0.172 for the first, 0.268 for the second.

Going from GGCGGGAA to CTCATCCC, the “PBM E-score” value falls from 0.287 to -0.0546.

Going from ACGACTAT to GGAACCTA, the “PBM E-score” value rises from -0.134 to -0.00354.

First: CGCCTACG
Second: ACTGAATG
The “PBM E-score” value of the first is higher: 0.0464 for the first, 0.00391 for the second.

Going from ATGAACGA to TGACCAAA, the “PBM E-score” value falls from -0.0854 to -0.249.

Going from ATTAGGCG to AATAATCT, the “PBM E-score” value falls from 0.0607 to 0.0195.

First: ATGACATC
Second: CCCTAGGG
The “PBM E-score” value of the first is higher: -0.108 for the first, -0.196 for the second.

Compared with CACCTCAA, CTTGCCAA is lower in “PBM E-score” value: -0.249 for the first, -0.256 for the second.

Compared with TTCAGGAA, AAAGACCA is higher in “PBM E-score” value: -0.22 for the first, -0.216 for the second.

Going from GGTGACGA to CAGCTCCC, the “PBM E-score” value falls from -0.0798 to -0.173.

Going from GAACCTCC to ATTAAACA, the “PBM E-score” value falls from 0.0508 to -0.0475.

Going from AATATCTA to TGACAACA, the “PBM E-score” value rises from -0.186 to -0.149.

Compared with ACTAGGCC, AGAGGTGG is lower in “PBM E-score” value: -0.0202 for the first, -0.0537 for the second.
